# From publication PMC6919601, “Identification of Plasmodium dipeptidyl aminopeptidase allosteric inhibitors by high throughput screening” (PLoS ONE, 2019)
# “And” between values parts separate entries of the source, which are not always exact repeats. Identical values can stand only once. Hit rate of the full screen: of about 110,000 compounds, about 230 (0.21%) showed an effect of 50% or more. The list shows a part of the results.
# Biological target: DPAP1 (Plasmodium falciparum, UniProt Q8IIJ9)
# Sequence (Q8IIJ9 whole entry, looked up): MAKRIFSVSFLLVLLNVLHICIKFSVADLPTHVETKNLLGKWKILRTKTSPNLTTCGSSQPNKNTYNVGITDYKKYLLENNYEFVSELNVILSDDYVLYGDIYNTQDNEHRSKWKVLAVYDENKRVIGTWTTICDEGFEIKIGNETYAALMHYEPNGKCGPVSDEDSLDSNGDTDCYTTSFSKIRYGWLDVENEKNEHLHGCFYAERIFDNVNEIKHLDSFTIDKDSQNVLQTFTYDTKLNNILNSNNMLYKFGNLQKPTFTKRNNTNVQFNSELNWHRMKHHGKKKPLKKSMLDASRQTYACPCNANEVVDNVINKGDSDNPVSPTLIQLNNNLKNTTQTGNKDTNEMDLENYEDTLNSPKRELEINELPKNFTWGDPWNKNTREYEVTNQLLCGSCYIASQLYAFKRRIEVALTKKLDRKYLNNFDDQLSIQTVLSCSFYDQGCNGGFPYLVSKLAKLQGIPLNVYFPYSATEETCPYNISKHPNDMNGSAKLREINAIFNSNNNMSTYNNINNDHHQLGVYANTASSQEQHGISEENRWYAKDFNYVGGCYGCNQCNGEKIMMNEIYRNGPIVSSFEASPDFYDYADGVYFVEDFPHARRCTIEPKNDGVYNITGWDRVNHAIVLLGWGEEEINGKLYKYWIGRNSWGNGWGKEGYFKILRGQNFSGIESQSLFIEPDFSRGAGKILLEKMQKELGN
# Experiment: primary screen, percent inhibition; read by cleavage of a fluorogenic dipeptide substrate; higher = more effect of the substance
# Parameters: species or system P. falciparum D10 trophozoite lysates; single well
# 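Also: 30 min substrate incubation versus DMSO and 10 µM JCP410 controls.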
row,Compound,% Inhibition @ 10 uM
1,CCOc1ccc2nc(NC(=O)c3cccc(C)c3)sc2c1,-5.3%
2,N#Cc1c2n(c3c(=O)n(Cc4ccccc4)cnc13)CCCC2,1.41%
3,COc1cccc2c1NC(c1ccc([N+](=O)[O-])cc1)C1CC=CC21 (stereo not drawn),13.1%
4,COc1ccccc1-c1cc2nc(C)c(CCC(=O)NC(C)CCc3ccco3)c(C)n2n1 (stereo not drawn),-2.25%
5,CCOC(=O)N1CCC(NC(=O)c2csc3c2CCCC3)CC1,-5.05%
6,CCNC(=O)c1c(NC(=O)COc2c(C)cccc2C)sc2c1CCCC2,-1.38%
7,O=C(CN1C(=O)CSc2ncccc21)NCCCN1CCN(C2CCCCC2)CC1,1.03%
8,CCCCn1/c(=N\C(=O)c2ccco2)c(C(=O)OCC)cc2c(=O)n3ccccc3nc21,-5.57%
9,O=C(NC1CCCC1)c1ccccc1-c1nc2ccccc2[nH]1,0.219%
10,CCOc1ccc(C(=O)Nc2ccccc2F)cc1,3.44%
11,Cc1nc2c(C)cccc2c(O)c1CCC(=O)O,4.42%
12,CC(=O)Nc1sc(Cl)cc1C(=O)c1ccccc1,4.28%
13,CCN(CC)S(=O)(=O)c1cc(C(N)=O)ccc1C,3.48%
14,COc1cccc(N(CC(=O)Nc2ccccc2Br)S(=O)(=O)c2ccc(C)cc2)c1,-0.796%
15,COc1cc2oc3cc4c(cc3c(=O)c2cc1OC)CCC(C)(C)O4,5.18%
16,CCCNC(=O)/C(=C/c1cn(CC)c2ccccc12)NC(=O)c1ccccc1F,-3.52%
17,CC(=O)c1sc(Nc2ccc(C)cc2)nc1C,1.35%
18,CCCn1c2ccccc2c2cnn(CC(=O)NCCc3cccc(C)c3)c(=O)c21,5.46%
19,COc1cccc(CC2(NC(=O)c3ccccc3)N=C3C(C)=CC=CN3C2=O)c1OC (stereo not drawn),-2.37%
20,COc1ccc(CCNC(=O)CS(=O)(=O)Cc2nc(-c3ccc(C)cc3)oc2C)cc1OC,-1.89%
21,O=[N+]([O-])c1ccc(C2NCCc3c2[nH]c2ccccc32)cc1 (stereo not drawn),1.21%
22,CCn1c(CN2CCOCC2)nc2c1c(=O)[nH]c(=O)n2C,-1.21%
23,O=S(=O)(O)CCCSc1nc2ccccc2s1,-0.053%
24,O=C(/C=C/c1ccco1)NC(=S)N1CCOCC1,-1.69%
25,CC(=O)N1N=C2C3CCN(CC3)C2C1c1cccc(F)c1 (stereo not drawn),2%
26,Cc1ccc(-c2csc(NC(=O)c3ccco3)n2)cc1,2.67%

row,Compound,% Inhibition @ 10 uM
1,C=CCSc1nnc(NC(=O)Cc2coc3c(C)c(C)ccc23)s1,7.17%
2,CCC(=O)n1nc(-c2cccnc2)nc1NCc1ccccc1,3.81%
3,CCOC(=O)/C=C/c1c(C)[nH]c(=O)[nH]c1=O,-6.7% and 0.484%
4,CCCCCSc1nc2c(c(=O)[nH]c(=O)n2C)n1CC,3.96%
5,O=C(CSc1nc2cc(C(F)(F)F)ccc2n1C1CC1)N1CCc2ccccc2C1,0.776%
6,CCOC(=O)/C(C#N)=C/c1c(Oc2ccccc2)nc2ccccn2c1=O,9.35%
7,COc1cccc(C2CC(C(F)(F)F)n3ncc(C(=O)N4CC5(C)CC4CC(C)(C)C5)c3N2)c1 (stereo not drawn),-1.72%
8,COc1ccc(C(=O)NCc2ccc(C)cc2)cc1,-3.37%
9,CCOc1cc(C(=O)Nc2cccc(C)n2)cc(OCC)c1OCC,5.06%
10,COc1cc(OC)cc(C(=O)Nc2ccc3ccccc3c2)c1,1.04%
11,COc1ccccc1N1CCN(C(C)Cc2ccc(F)cc2)CC1 (stereo not drawn),-1.41%
12,COc1cc(S(=O)(=O)N2CCN(c3ccc(C)c(Cl)c3)CC2)ccc1Cl,-1.02%
13,CCCCNCc1c(C(=O)O)n(Cc2cc(C)ccc2C)c2ccccc12,-5.05%
14,CN1CCC(N(C)Cc2ccc(Cl)cc2)CC1,3.16%
15,CCCCS(=O)(=O)CC1CC1(Cl)Cl (stereo not drawn),-0.0626%
16,Oc1c2nc3ccccc3c-2ncn1CCN1CCN(Cc2ccccc2)CC1,6.31%
17,Cn1c(=O)n(Cc2ccccc2)c(=O)c2c1ncn2CCO,-1.52%
18,CC(C)Nc1cc(-c2ccccc2)nc2nncn12,-2.79%
19,CSC1=N/C(=C\c2c(C)nn(-c3ccccc3)c2Cl)C(=O)S1,-3.33%
20,COc1cccc(C2C(C#N)=C(N)Oc3cc(C)oc(=O)c32)c1OC (stereo not drawn),-0.0372%
21,CCCCc1nc2ccccc2n1C(C)C(=O)O (stereo not drawn),-3.53%
22,O=C(COCc1cc(-c2ccc(F)cc2)on1)N1CCN(C(=O)c2ccco2)CC1,-4.38%
23,COc1ccc2c(c1)C1=NN(/C(C)=C/C(C)=O)C(c3cccc(F)c3)C1CC2 (stereo not drawn),-3.23%
24,COC(=O)C1=C(C)N(C)C(C)=C(C(=O)OC)C1c1ccc(OC)c(OC)c1,6.12%
25,Cc1ccsc1/C=C1/SC(=O)N(CC(=O)N2CCOCC2)C1=O,-2.44%
26,CCN(CC)CCCNC(=O)CN1C(=O)C(c2ccccc2)Oc2cccnc21 (stereo not drawn),-3.56%

row,Compound,% Inhibition @ 10 uM
1,Cc1ccc(N2C(=O)C3CC=CC(C)C3C2=O)c(C)c1 (stereo not drawn),-5.46%
2,CCOc1cccc2c1OC(c1cccc(OC)c1OC)N1N=C(c3cccc(OC)c3)CC21 (stereo not drawn),19.2%
3,Cc1cc(C)n2nc(SCC(=O)NCCc3ccccc3)nc2n1,-0.519%
4,CC1=C(C#N)C(c2cccc(O)c2)C2=C(O)CC(C)(C)CC2=N1 (stereo not drawn),-3.77%
5,CC(C)CS(=O)(=O)C1=NN2C(=N)/C(=C\c3ccc(SCc4ccco4)o3)C(=O)N=C2S1,39.2%
6,O=C(COCC(=O)N1CCCC1)N1CCCC1,-5.41%
7,CN(c1ncnc2c1cnn2-c1ccc(Cl)cc1)C1CCCCC1,-1.1%
8,Cc1ccc(S(=O)(=O)NCC2CC3c4ccccc4C2c2ccccc23)cc1 (stereo not drawn),-3.07%
9,CC(C)CCNc1nn2nnnc2c2ccccc12,-3.18%
10,CCc1c(C=O)[nH]c(C(=O)OCc2ccccc2)c1C,4.42%
11,Cn1c(=O)c2c(nc3n(CCCO)c(C45CC6CC(CC(C6)C4)C5)cn23)n(C)c1=O,-4.76%
12,c1ccc(CNc2nn3cnnc3c3ccccc23)cc1,-6.29%
13,CC(C)N(CCC#N)S(=O)(=O)c1ccccc1,0.035%
14,CC(C)OCCCNC(=O)C1CCC(CNS(=O)(=O)c2ccc(Cl)cc2)CC1 (stereo not drawn),3.93%
15,COc1ccccc1C(=O)n1nc(-c2cccnc2)nc1N,0.628%
16,COc1ccc(Cl)cc1-n1c(C)cc(/C=C2\C(=N)N3N=C(N4CCOCC4)SC3=NC2=O)c1C,1.72%
17,O=C(O)COc1ccc(Oc2ccc(Cl)cc2)cc1,0.992%
18,COc1ccc(CCN/C=C2\CC(=O)NC2=O)cc1OC,17.1%
19,CN1CCN(C(=O)c2cc(-c3ccc4c(c3)OCO4)nc3ccccc23)CC1,0.389%
20,Cc1cc(C)nc(SCC(=O)NCc2cc(-c3nn(C)c(=O)c4ccccc34)ccc2C)n1,-2.98%
21,CCC(=O)Nc1nc2c(s1)C(=O)CC(c1ccccc1)C2 (stereo not drawn),-1.29%
22,C=Cc1ccc(Cn2c(C(=O)O)c(CNCCC3=CCCCC3)c3ccc(C)cc32)cc1,1.59%
23,CCOC(=O)c1sc2nc(N)c(C#N)c(-c3ccccc3)c2c1N,3.96%
24,COCCN1C(=O)c2oc3ccccc3c(=O)c2C1c1ccc(OC)c(OC)c1 (stereo not drawn),-2.91%
25,COc1ccc(C(O)c2nc3ccccc3n2C)cc1 (stereo not drawn),-2.2%
26,CC1(C)Cc2c(sc(NC(=O)Nc3ccccc3)c2C(N)=O)CO1,-2.21%

row,Compound,% Inhibition @ 10 uM
1,Nc1nnc(SCC(=O)n2c3ccccc3c3ccccc32)s1,7.73%
2,CCOc1ccccc1C(=O)N1CCN(Cc2ccccc2)CC1,3.53%
3,CCCOc1ccc(CC(=O)Nc2ccc(Br)cc2)cc1OC,5.31%
4,Cc1nccn1CCCNC(=O)COc1ccc(Br)cc1,-3.47%
5,CC(=O)c1cc(-c2ccccc2)[nH]c1N1CCOCC1,-4.93%
6,Cc1cc(C)nc(NS(=O)(=O)c2ccc(NC(=S)NC(=O)/C=C/c3ccccc3)cc2)n1,-5.33%
7,CC(C)N1CNc2nc3ccccc3n2C1,-1.33%
8,CCOc1ccc(C(=O)Nc2ccc(C)c(Cl)c2)cc1,-8.95%
9,CCCc1nn2c(=O)cc(CSc3nc4ccccc4s3)nc2s1,1.15%
10,CC(=O)c1cccc(NC(=O)C(Sc2ccccc2)c2ccccc2)c1 (stereo not drawn),2.74%
11,COc1ccccc1CNC(=O)c1ccc2c(c1)ncn2C1CCCC1,-1.34%
12,O=C1c2ccccc2C(=O)c2c1cc(NC1CCCCC1)c1nsnc21,4.16%
13,CCC(C(=O)Nc1nc2nc(C)cc(C)n2n1)c1ccccc1 (stereo not drawn),8.16%
14,Cc1cccc(NC(=O)COc2ccc(C3C4=C(CCCC4=O)OC4=C3C(=O)CCC4)cc2Cl)c1,-0.661%
15,COc1cc2c(C(=O)NC3CCCCC3)cn(CC(C)C)c(=O)c2cc1OC,-7.33%
16,CCn1c(SCC(=O)NCc2ccccc2)nnc1-c1nonc1N,4.33%
17,O=c1c2cnn(-c3ccccc3)c2ncn1Cc1c(F)cccc1Cl,-3.75%
18,COC(=O)c1cccc(S(=O)(=O)N2CCCCC2)c1,-0.856%
19,CCOC(=O)c1ccc2c(c1)sc1nc(-c3ccccc3)cn12,3.39%
20,COc1ccc(C(=O)N2CCN(c3ccc(N4CCOCC4)nn3)CC2)cc1,-3.45%
21,CC(Cc1c[nH]c2ccccc12)N1C(=O)CCC1=O (stereo not drawn),5.02%
22,CCc1c(C(=O)N2N=C(C(F)F)CC2(O)C(F)F)csc1C (stereo not drawn),-1.63%
23,COc1ccc(N2C(=O)CC(NC3CCN(Cc4ccccc4)CC3)C2=O)cc1 (stereo not drawn),5.97%
24,CCCCNC(=O)c1c(Cl)nc(C)c(Cl)c1C,2.8%
